Laboratory results as given in PubChem BioAssay AID588795 (National Center for Advancing Translational Sciences (NCATS), 2011).
Where “and” joins values, the source holds several entries; their conditions need not be identical. Equal entries are not always repeated. Screen size: about 390,000 compounds; about 1,400 (0.36%) were called active. This list was built around the results that the source calls inconclusive (neither active nor inactive); the mix of calls is not that of the screen. Calls come from the whole dose curve; as a rule, active = well fitted inhibition curve with a large enough effect; inconclusive = small, poorly fitted or top-dose-only effect; inactive = no such curve, though single readings can be large or run the other way. A potency beside an inconclusive call is a rough fit, not a confirmed value.

These compounds were tested against Flap endonuclease 1 (Homo sapiens) (UniProt P39748) (assay: qHTS Assay for the Inhibitors of Human Flap endonuclease 1 (FEN1).). Conditions: Recombinant FEN1 flap cleavage, fluorescence, 15 min; series mostly up to 114 µM; activity change, negative = inhibition: at the top concentration.
Procedure, shortened: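 In this screen, 50 nM flap DNA substrate was added to 10 nM FEN1 pretreated with compound for 15 min at room temperature; cleavage was followed with reads at 0 and 15 min, and Hill fitting gave concentration–response parameters.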
% is set by controls: 0 for no effect and ±100 for the full control effect; potency is the fitted concentration of half-maximal effect; tags give direction and shape of the fitted curve.
Note: nearly all actives have a fitted effect of over 65% in size.

Sequence of UniProt P39748 (P39748 whole entry, looked up): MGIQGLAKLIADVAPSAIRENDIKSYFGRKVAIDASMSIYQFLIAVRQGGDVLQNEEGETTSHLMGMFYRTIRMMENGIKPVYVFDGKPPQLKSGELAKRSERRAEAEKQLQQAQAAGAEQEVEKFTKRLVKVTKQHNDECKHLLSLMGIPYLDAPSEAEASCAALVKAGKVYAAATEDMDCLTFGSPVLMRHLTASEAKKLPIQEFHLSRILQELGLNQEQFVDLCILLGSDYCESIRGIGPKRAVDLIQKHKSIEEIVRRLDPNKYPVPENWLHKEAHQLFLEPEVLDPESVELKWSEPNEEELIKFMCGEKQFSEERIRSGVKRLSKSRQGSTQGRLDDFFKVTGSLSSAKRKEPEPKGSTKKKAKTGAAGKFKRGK

Row | SMILES | Potency | activity change, negative = inhibition
1 | NS(=O)(=O)c1ccc(N=Cc2c(O)n(C3CCCCC3)c(=O)n(C3CCCCC3)c2=O)cc1 | inconclusive: 89.1 µM [inhibitor, partial curve, poor fit] | 
2 | COc1cccc(NC(=O)c2ccc3c(=O)n4nc(Nc5ccccc5OC)sc4nc3c2)c1 | inconclusive: 79.4 µM [inhibitor, partial curve, poor fit] | 
3 | C[N+]1(C)CCOC(O)(c2ccc(-c3ccc(C4(O)C[N+](C)(C)CCO4)cc3)cc2)C1 (stereo unspecified) | inconclusive: 18.9 µM [inhibitor, partial curve] | 
4 | Cc1ccc(C=C2C(Cl)=C(Cl)C(Cl)=C2Cl)cc1 | inconclusive: 50.1 µM [inhibitor, partial curve, poor fit] | 
5 | Cc1ccc(N2C(=O)NC(=O)/C(=C/c3ccc(-c4ccc(C(=O)O)c(Cl)c4)o3)C2=O)cc1 | inconclusive: 89.1 µM [inhibitor, single point] | 
6 | COc1ccc(/C=C2/C(=O)NC(=O)N(c3ccccc3)C2=O)cc1CN1C(=O)c2ccccc2C1=O | inconclusive: 56.2 µM [inhibitor, partial curve, poor fit] | 
7 | CCN(CC)c1ccc(/C=C2\C(=O)NC(=O)N(Cc3ccco3)C2=O)cc1 | inconclusive: 79.4 µM [inhibitor, single point] | 
8 | Cc1ccc(N2C(=O)NC(=O)/C(=C\C=C\c3ccco3)C2=O)cc1C | inconclusive: 89.1 µM [inhibitor, single point] | 
9 | O=C1NC(=S)NC(=O)C1=Cc1cccc2cc3ccccc3cc12 | inconclusive: 14.1 µM [inhibitor, partial curve, poor fit] | 
10 | Nc1c(C(=O)NCc2ccco2)c2nc3ccccc3nc2n1CCN1CCOCC1 | inconclusive: 50.1 µM [inhibitor, partial curve, poor fit] | 
11 | NC(N)=NC(=O)c1nc(Cl)c(N)nc1N | inactive and inconclusive: 89.1 µM [inhibitor, partial curve, poor fit] | 
12 | COc1cc(-c2oc3cc(O)cc(O)c3c(=O)c2O)ccc1O | inconclusive: 56.2 µM [inhibitor, partial curve] | 
13 | Cc1ccc(OP(=O)(Nc2cccc(C)c2)Oc2ccc(C)cc2)cc1 | inconclusive: 39.8 µM [inhibitor, partial curve, poor fit] | 
14 | O=[N+]([O-])c1oc2ccc3ccccc3c2c1CCO | inconclusive: 44.7 µM [inhibitor, partial curve, poor fit] | 
15 | NC(=O)c1ccc(N=Cc2c(O)n(Cc3ccco3)c(=O)[nH]c2=O)cc1 | active: 39.8 µM | 
16 | O=C(O)CSCC(=O)N(Cc1ccccc1)c1nc(-c2ccccc2)c(-c2ccccc2)s1 | inconclusive: 44.7 µM [inhibitor, partial curve, poor fit] | 
17 | Cc1noc(C(=O)Nc2sc3c(c2C#N)CCC3)c1Cl | inconclusive: 89.1 µM [inhibitor, partial curve, poor fit] | 
18 | CN(C)C1C(=O)C(C(N)=O)=C(O)C2(O)C(=O)C3=C(O)c4c(O)cccc4C(C)(O)C3CC12 (stereo unspecified) | inconclusive: 39.8 µM [inhibitor, full curve] | 
19 | CC1N(C)c2cc(NC(=O)c3ccco3)c(P(=O)(Nc3ccc([N+](=O)[O-])cc3)N3CCOCC3)cc2C1(C)C (stereo unspecified) | inconclusive: 56.2 µM [inhibitor, partial curve, poor fit] | 

Row | SMILES | Potency | activity change, negative = inhibition
20 | CCc1ccccc1N1C(=O)/C(=C/c2ccc(N3CCN(C)CC3)o2)C(=O)NC1=S | inconclusive: 89.1 µM [inhibitor, partial curve, poor fit] | 
21 | O=C1C(Cl)=CC(=Nc2ccc(O)cc2)C=C1Cl | inconclusive: 35.5 µM [inhibitor, partial curve, poor fit] | 
22 | COc1ccc(N2C(=O)/C(=C/c3ccc(C)o3)C(=O)NC2=S)c(OC)c1 | inconclusive: 44.7 µM [inhibitor, partial curve] | 
23 | CC1=C[C@@H]2c3cccc4[nH]cc(c34)C[C@H]2N(C)C1 | inconclusive: 50.1 µM [inhibitor, partial curve, poor fit] | 
24 | CCN(CC)c1ccc(/C=N/c2sc3c(c2C#N)C2CCN3CC2)c(O)c1 | inconclusive: 89.1 µM [inhibitor, partial curve, poor fit] | 
25 | CCOC(=O)c1ccc(N=Cc2c(O)n(-c3ccccc3F)c(=S)[nH]c2=O)cc1 | inconclusive: 100 µM [inhibitor, single point] | 
26 | CC(=O)OC(C)(C)/C=C/C(=O)C(C)(O)C1C(O)CC2(C)C3CC=C4C(CC(O)C(=O)C4(C)C)C3(C)C(=O)CC12C (stereo unspecified) | inconclusive: 89.1 µM [inhibitor, single point] | 
27 | CN(C)c1ccc(/C=C/c2cc[n+](C)c3ccccc23)cc1 | active: 31.6 µM and active: 22.4 µM and active: 35.5 µM | 
28 | O=C(Nc1cc[c]([Sb](=[O])([OH])[OH])cc1)c1ccccc1 | active: 39.8 µM | 
29 | COc1ccc(N2C(=O)NC(=O)/C(=C\c3cn(C)c4ccccc34)C2=O)cc1 |  | inactive: 13.3%
30 | CC(C)CCN(N=O)[C@@H](Cc1ccccc1)CN(N=O)[C@@H](Cc1ccccc1)CN(C)N=O | inconclusive: 56.2 µM [inhibitor, partial curve, poor fit] | 
31 | CC(C)c1ccc(N2C(=O)NC(=O)/C(=C\C=C\c3ccco3)C2=O)cc1 | inconclusive: 22.4 µM [inhibitor, full curve, poor fit] | 
32 | COc1cccc2c1C(=O)c1c(O)c3c(c(O)c1C2=O)CC(O)(C(C)=NO)CC3OC1CC(N)C(O)C(C)O1 (stereo unspecified) | inconclusive: 50.1 µM [inhibitor, partial curve, poor fit] | 
33 | Nc1ncnc2c1ncn2[C@@H]1O[C@H](COP(=O)(O)CP(=O)(O)O)[C@@H](O)[C@H]1O |  | inactive: -12.2%
34 | Cc1ccc(N2C(=O)NC(=O)/C(=C/c3cnn(-c4ccc(C)cc4)c3)C2=O)cc1 |  | inactive: 3.2%
35 | COc1cc2c(cc1O)[C@@H]1Cc3ccc(OC)c(O)c3CN1CC2 | inconclusive: 4.47 µM [inhibitor, full curve, poor fit] | 
36 | CC[C@H](C)/C=C(C)/C=C/C1=CC2=C(Cl)C(=O)[C@@](C)(OC(C)=O)C(=O)C2=CO1 | inconclusive: 20 µM [inhibitor, full curve, poor fit] | 
37 | COc1ccc(NC(=O)CCc2nc(C3=CCN(Cc4cccc(Cl)c4)CC3)no2)cc1OC | inconclusive: 56.2 µM [inhibitor, partial curve, poor fit] | 
38 | CSc1ncc(CN2CCCC(C(=O)c3ccccc3SC)C2)cn1 (stereo unspecified) | inconclusive: 89.1 µM [inhibitor, single point] | 

Row | SMILES | Potency | activity change, negative = inhibition
39 | Cc1cccn2c(=O)c(C=Nc3ccccc3)c(NCc3ccco3)nc12 | inconclusive: 4.47 µM [inhibitor, full curve] | 
40 | O=C(COc1ccc(Cl)cc1Cl)N1CCN(C/C=C/c2ccccc2)CC1 | inconclusive: 89.1 µM [inhibitor, partial curve, poor fit] | 
41 | O=c1c2ccccc2nc(/C=C/c2ccccc2O)n1-c1ccc(Br)cc1 | inconclusive: 79.4 µM [inhibitor, partial curve, poor fit] | 
42 | CCN1C(=O)/C(=C2\C=Cc3ccccc3N2CC)OC1=S | inconclusive: 70.8 µM [inhibitor, partial curve, poor fit] | 
43 | COC[C@H]1OC(=O)c2coc3c2[C@@]1(C)C1=C(C3=O)[C@@H]2CCC(=O)[C@@]2(C)C[C@H]1OC(C)=O |  | inactive: -0.437%
44 | COc1ccc(OCCn2c(NC(=O)c3ccc(OC)cc3)nc3ccccc32)cc1 | inconclusive: 89.1 µM [inhibitor, single point] | 
45 | Oc1cc2c(cc1O)[C@H]1c3ccccc3CN[C@@H]1CC2 | inconclusive: 79.4 µM [inhibitor, single point] | 
46 | CCOC(=O)c1c(/N=C/c2c(O)n(-c3ccccc3F)c(=S)[nH]c2=O)sc2c1CCCC2 |  | inactive: -20%
47 | CC1=NCCc2c1[nH]c1cc(O)ccc21 | inconclusive: 50.1 µM [inhibitor, partial curve, poor fit] | 
48 | CN1CCC(N(C)c2nc(-c3ccc([N+](=O)[O-])cc3)nc3ccccc23)CC1 | active: 35.5 µM | 
49 | COc1cccc(OC)c1-c1nn2c(-c3n[nH]c4c3CCC4)nnc2s1 | inconclusive: 50.1 µM [inhibitor, partial curve] and inconclusive: 44.7 µM [inhibitor, partial curve] | 
50 | COc1cc(O)c(C(=O)O)c(-c2cc(O)c(O)cc2C)c1 | inconclusive: 89.1 µM [inhibitor, single point] | 
51 | CCOC(=O)c1ccc(N=Cc2c(O)n(-c3ccc(OC)cc3)c(=S)[nH]c2=O)cc1 | inconclusive: 56.2 µM [inhibitor, partial curve, poor fit] | 
52 | O=C(CO)C(O)C(O)C(O)CO (stereo unspecified) | inconclusive: 89.1 µM [inhibitor, partial curve, poor fit] | 
53 | Cc1ccc2c(c1)C1CN(C)CCC1N2C(=O)c1ccco1 (stereo unspecified) |  | inactive: 12.1%
54 | O=C1NC(=O)N(Cc2ccco2)C(=O)/C1=C/c1ccc(-c2cccc([N+](=O)[O-])c2)o1 | inconclusive: 22.4 µM [inhibitor, full curve, poor fit] | 
55 | COc1ccccc1NC(=O)N(Cc1ccc2c(c1)OCO2)C1CCN(Cc2ccccc2)CC1 | inconclusive: 44.7 µM [inhibitor, partial curve, poor fit] | 
56 | CCOC(=O)C1=Nc2ccccc2/C1=C\c1c(O)n(C)c(=O)n(C)c1=O |  | inactive: -16.1%
